SMILES strings stand for the structures. The campaign covered roughly 48,000 compounds. About 550 (1.1%) were called active. Inconclusive results (about 4%) are left out. Cut-off read from the data, not from the text of the source: active = potency below about 15 µM; inconclusive = mostly about 16 µM to 33 µM; inactive = weaker than that. The list shows a part of the results.
Potency is the fitted concentration of half-maximal effect.

The test deals with Lysosomal acid glucosylceramidase (Homo sapiens) (UniProt P04062). Description: Glucocerebrosidase.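 Note: the screen sought inhibitors.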 The conditions noted are these: purified enzyme, resorufin glucoside fluorescence (screen aimed at inhibitors), 20 min. The gist of the method: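 Normal human glucocerebrosidase (0.2 nM final) was assayed with resorufin β-D-glucopyranoside (30 uM final) in 50mM citric acid/KH2PO4, 10mM sodium taurocholate, 0.01% tween-20, pH 5.9. Compounds were titrated; fluorescence (Ex 548, Em 600) read after 20 min at RT.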
Sequence of UniProt P04062 (P04062 whole entry, looked up): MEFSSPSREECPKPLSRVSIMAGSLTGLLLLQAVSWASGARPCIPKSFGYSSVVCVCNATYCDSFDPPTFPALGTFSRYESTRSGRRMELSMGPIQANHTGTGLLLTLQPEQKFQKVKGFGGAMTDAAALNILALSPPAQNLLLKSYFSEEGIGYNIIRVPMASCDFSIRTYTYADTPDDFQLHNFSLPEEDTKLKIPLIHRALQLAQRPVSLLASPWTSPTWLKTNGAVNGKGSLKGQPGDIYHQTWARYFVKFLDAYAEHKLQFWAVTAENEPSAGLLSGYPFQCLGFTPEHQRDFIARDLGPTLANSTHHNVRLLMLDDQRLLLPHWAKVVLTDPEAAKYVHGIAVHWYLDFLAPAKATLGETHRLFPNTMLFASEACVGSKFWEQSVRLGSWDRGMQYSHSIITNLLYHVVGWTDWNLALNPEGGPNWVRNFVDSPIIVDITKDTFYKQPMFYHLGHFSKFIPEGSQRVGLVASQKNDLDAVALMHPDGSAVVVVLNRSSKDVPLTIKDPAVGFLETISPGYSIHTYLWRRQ
With `Cn1c(=O)c2nncnc2n(C)c1=O`, the Potency was inactive: > 76.9 µM.

Take `COc1ccc(CC2C(=O)N(C)C(=O)N(C)C2=O)c(OC)c1`: the Potency is inactive: > 76.9 µM.

As for `OCCN(CC#CC(O)(c1ccccc1)C1CCCC1)CCO` (stereo not given), the Potency is inactive: > 76.9 µM.

Turning to `Cc1ccc(C2(O)CC(C)N(C)CC2C)cc1` (stereo not given), the Potency is inactive: > 76.9 µM.

Regarding `CCOC(=O)c1c(C)n(Cc2ccccc2)c2ccc(OCC(O)CN3C(=O)CNC3=O)cc12` (stereo not given), the Potency was inactive: > 76.9 µM.

As to `CC(=NCC1CCCO1)c1c(O)n(-c2ccccc2)c(=O)[nH]c1=O` (stereo not given), the Potency is inactive: > 76.9 µM.

As to `CCOC(=O)N(c1ccccc1)P1(=S)OCC(C)O1` (stereo not given), the Potency is inactive: > 76.9 µM.

As for `CCC1=C(C)C(N2CCOCC2)=NP(N2CCOCC2)(N2CCOCC2)=N1`, the Potency was inactive: > 76.9 µM.

`CC(NC(=O)Oc1ccccc1)C(c1cccs1)N1CCOCC1` (stereo not given): the Potency was inactive: > 76.9 µM.

Turning to `CN(C)P(=O)(C(Cl)=C(N1CCCCC1)N1CCCCC1)N(C)C`, the Potency is inactive: > 76.9 µM.

For `CCn1c(O)c(C=NCc2cccs2)c(=O)[nH]c1=O`, the Potency was inactive: > 76.9 µM.

`O=c1[nH]c(=O)n(-c2cccc(Cl)c2)c(O)c1C=NCCCN1CCOCC1`: the Potency was inactive: > 76.9 µM.

Turning to `CCOC(=O)c1ccc(NC(=O)c2c(O)[nH]c(=O)[nH]c2=O)cc1`, the Potency was inactive: > 76.9 µM.

In the case of `CN1C2C=C(N(C(=O)c3ccc(Cl)cc3)c3ccccc3)CC1CC2` (stereo not given), the Potency is inactive: > 76.9 µM.

On to `COc1ccc(CC2c3cc(OC)c(OC)cc3CCN2C)cc1OC` (stereo not given), for which the Potency is inactive: > 76.9 µM.

Turning to `COCc1cc(C2SCC(=O)Nc3c2c(=O)[nH]n3C(C)C)ccc1OC` (stereo not given), the Potency was inactive: > 76.9 µM.

For the compound `CCOC(=O)c1cccc([P+](=O)O)c1`, the Potency is inactive: > 76.9 µM.

Regarding `C=CCn1c(O)c(C(C)=Nc2ccc(NC(C)=O)cc2)c(=O)[nH]c1=O`, the Potency is inactive: > 76.9 µM.

For the compound `CCC(=NCC1CCCO1)c1c(O)n(Cc2ccccc2)c(=O)[nH]c1=O` (stereo not given), the Potency was inactive: > 76.9 µM.

`CC(=NCC1CCCO1)c1c(O)n(-c2ccc(Cl)cc2)c(=O)[nH]c1=O` (stereo not given): the Potency is inactive: > 76.9 µM.

On to `COc1ccc(CCn2c(O)c(C=NC3CC3)c(=O)[nH]c2=O)cc1OC`, for which the Potency was inactive: > 76.9 µM.

Take `CC(=O)NC1CC2CCC(C1)N2` (stereo not given): the Potency was inactive: > 76.9 µM.

As to `Cn1ccnc1P(=S)(c1nccn1C)N1CCOCC1`, the Potency was inactive: > 76.9 µM.

For `Cc1ccc(-c2nc(CS(=O)CC(=O)N3CCC4(CC3)OCCO4)c(C)o2)cc1` (stereo not given), the Potency is inactive: > 76.9 µM.

For `CCOC(=O)C1=C(N)Oc2c(c(=O)oc3ccccc23)C12C(=O)N(C)c1ccccc12` (stereo not given), the Potency was inactive: > 76.9 µM.

The record behind these values is PubChem BioAssay AID360 (National Center for Advancing Translational Sciences (NCATS), 2006).
